From the supplement of paper PMC4604168 (melanoma cell lines)
This is one part of the list. Most values come without repeats; read them as rough.

How the values were obtained:
Test in all cases: cell count relative to DMSO control; melanoma cells; higher = more viable cells
Conditions in all cases: library dose: standard library concentration; 72 h
G361 = test system: G361
IPC-298 = test system: IPC-298
IST-MEL1 = test system: IST-MEL1
LB2518-MEL = test system: LB2518-MEL
LOXIMVI = test system: LOXIMVI
MEL-HO = test system: MEL-HO
MZ2-MEL = test system: MZ2-MEL
MeWo = test system: MeWo
RPMI7951 = test system: RPMI7951
RVH-421 = test system: RVH-421
SkMel28 = test system: SkMel28
SkMel2 = test system: SkMel2
SkMel30 = test system: SkMel30
SkMel5 = test system: SkMel5
UACC257 = test system: UACC257
UACC62 = test system: UACC62
WM115 = test system: WM115
WM1716 = test system: WM1716
WM1745 = test system: WM1745
WM3526 = test system: WM3526
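Further: cells treated in 1,536-well plates, then fixed and DAPI-stained, with nuclei counted from automated high-throughput microscope images.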

SMILES	cell count (G361) [%]	cell count (IPC-298) [%]	cell count (IST-MEL1) [%]	cell count (LB2518-MEL) [%]	cell count (LOXIMVI) [%]	cell count (MEL-HO) [%]	cell count (MZ2-MEL) [%]	cell count (MeWo) [%]	cell count (RPMI7951) [%]	cell count (RVH-421) [%]	cell count (SkMel28) [%]	cell count (SkMel2) [%]	cell count (SkMel30) [%]	cell count (SkMel5) [%]	cell count (UACC257) [%]	cell count (UACC62) [%]	cell count (WM115) [%]	cell count (WM1716) [%]	cell count (WM1745) [%]	cell count (WM3526) [%]
N#CC[C@H](C1CCCC1)n1cc(-c2ncnc3[nH]ccc23)cn1 [ruxolitinib] + Cn1cc(C2=C(c3cn(C4CCN(Cc5ccccn5)CC4)c4ccccc34)C(=O)NC2=O)c2ccccc21 [Enzastaurin] (first compound 5 µM, partner dose 4 µM)	80.3	104	89.6	104	170	90.7	101	90.9	93.8	388	116	101	128	103	69.6	93.2	129	53.7	81.6	98.8
CCc1ccc(CCOc2ccc(CC3SC(=O)NC3=O)cc2)nc1 (stereo not given) [pioglitazone] + C/C(O)=C(\C#N)C(=O)Nc1cc(Br)ccc1Br [LFM-A13] (first compound 10 µM, partner dose 10 µM)	101	92.6	94.5	85.3	108	97.1	85.6	81.8	91.3	108	95.5	96.3	93.6	86.5	100	108	72.7	101	61.7	90
O=C(Oc1ccc([N+](=O)[O-])cc1)N1CCC(C(O)(c2ccc3c(c2)OCO3)c2ccc3c(c2)OCO3)CC1 + CC(C)CCN1c2nc(Nc3cc(F)c(O)c(F)c3)ncc2N(C)C(=O)C1C [BID1870] (first compound 5 µM, partner dose 1 µM)	92.1	87.8	101	134	93.1	79.1	116	78.8	96.2	82.8	83.4	82.5	97.4	76.2	90.6	75.9	105	94.3	93.2	75.1
O=C(Nc1cc(C(F)(F)F)cc(C(F)(F)F)c1)c1cc(Cl)ccc1O + C[C@]12O[C@H](C[C@]1(O)CO)n1c3ccccc3c3c4c(c5c6ccccc6n2c5c31)CNC4=O [Lestaurtinib] (first compound 0.08 µM, partner dose 0.02 µM)	72.4	74	94.9	51.8	110	78.5	86.2	63.5	102	86.6	66.6	84.2	69.4	66.3	78.9	76.9	82	93.1	64	61.6
CC1(C)CCC(c2ccc(Cl)cc2)=C(CN2CCN(c3ccc(C(=O)NS(=O)(=O)c4ccc(N[C@H](CCN5CCOCC5)CSc5ccccc5)c(S(=O)(=O)C(F)(F)F)c4)cc3)CC2)C1 + C[C@]12O[C@H](C[C@]1(O)CO)n1c3ccccc3c3c4c(c5c6ccccc6n2c5c31)CNC4=O [Lestaurtinib] (first compound 2 µM, partner dose 0.02 µM)	62.5	79.1	94.8	33.9	75.7	63.6	97.6	80.9	52.5	42.9	60.1	87.6	66.1	84.9	39.3	82.7	54.5	90.5	2.84	105
Cc1cc(SCc2sc(-c3ccc(C(F)(F)F)c(F)c3)nc2C)ccc1OCC(=O)O + O=C(Oc1ccc([N+](=O)[O-])cc1)N1CCC(C(O)(c2ccc3c(c2)OCO3)c2ccc3c(c2)OCO3)CC1 [JZL184] (first compound 10 µM, partner dose 5 µM)	96.2	99.3	111	117	136	102	103	97.6	115	120	104	97.1	103	94.8	101	90.6	100	103	103	93.9
Cc1ccc(Nc2nccc(N(C)c3ccc4c(C)n(C)nc4c3)n2)cc1S(N)(=O)=O [Pazopanib] + N.N.[Cl][Pt][Cl] [cisplatin] (first compound 2 µM, partner dose 8 µM)	86.6	73.8	104	82.5	85.1	82.7	87.4	103	110	80.1	98	113	70.2	64.2	81.9	72.8	83.3	89	94.8	75.5
O=C(Nc1ccccc1)c1cc([N+](=O)[O-])ccc1Cl + C/C(O)=C(\C#N)C(=O)Nc1cc(Br)ccc1Br [LFM-A13] (first compound 10 µM, partner dose 10 µM)	96.8	99.2	94.6	98.8	116	88.3	85.3	70.2	74	77	61.8	87.4	78.3	62.3	84.2	85.9	71.5	86.2	78.9	74.2
O=C(O)c1ccc(-c2c[nH]c3ncc(-c4ccccc4)cc23)cc1C1CCCC1 + C/C(O)=C(\C#N)C(=O)Nc1cc(Br)ccc1Br [LFM-A13] (first compound 0.8 µM, partner dose 10 µM)	70.1	82.2	89.5	101	77.7	75.1	84	102	77.8	38.4	64	82.6	89	95.2	78.2	98.3	90.7	94.2	68.3	81.2
